# Where “and” joins values, the source holds several entries; their conditions need not be identical. Identical values can stand only once. The full ranking holds about 13,000 compounds; the median of “IFI” is about 4, and the highest 2% start at about 17. The list shows a part of the results.
# Test: GSK_TCMDC: Inhibition Frequency Index (IFI). The number of non-kinase HTS assays where a compound showed > 50 % inhibition, expressed as a percentage of the number of such assays in which the compound was tested (-0 is zero)
# Type: functional
row,SMILES,IFI
1,O=C(NCC1CCN(Cc2cccc(C(F)(F)F)c2)C1)c1cc(-c2cccc(C(F)(F)F)c2)cs1 (stereo not drawn),9.43%
2,CC(C)(C)C1CCC(C(=O)c2ccc3ccccc3c2O)CC1 (stereo not drawn),0%
3,Oc1c(C(Nc2nc3ccccc3s2)c2ccccc2)ccc2cccnc12 (stereo not drawn),5.19%
4,O=[N+]([O-])c1cccc(CNCC2CCN(Cc3ccc(C(F)(F)F)cc3)CC2)c1,3.6%
5,COc1ccc2sc(CNCCCNc3cc(=O)c4ccccc4[nH]3)c(Cl)c2c1,7.81%
6,O=C(C=Cc1ccc(Cl)c(Cl)c1)NCCCCCN1CCC(CCCNC(=O)/C=C/c2ccccc2)CC1,8.27%
7,COc1ccc2ncc(F)c(CCN3C[C@H](CNCc4cc(F)c5c(c4)NC(=O)CO5)[C@H](O)C3)c2n1,1.9%
8,CCOC(=O)c1ccc(-c2c(C(F)(F)F)noc2-c2cc(CC)c(OC)cc2O)o1,4.41%
9,O=C(CSc1nc2ccccc2c(=O)n1C1CC1)Nc1cc(C(F)(F)F)ccc1Cl,0.71%
10,CCOc1cc(-c2nnc3[nH]c(=O)n(C)c(=O)c3n2)ccc1OC(C)C,7.69%
11,Cc1c(S(=O)(=O)Nc2ccc3nccc(N4CC(C)NC(C)C4)c3c2)sc2ccc(Cl)cc12 (stereo not drawn),1.48%
12,CS(=O)(=O)c1ccccc1CNC(=O)c1cccc(-c2ccc(-c3nc4cc(C(F)(F)F)ccc4[nH]3)cc2)c1,9.43%
13,COc1cc2c(cc1OCCN1CCC(N3CCCC3)CC1)N(C(=O)/C=C/c1ccccc1Cl)CC2,7.75%
14,COc1ccc(CN2CCCC(Nc3ccc(F)c(F)c3)C2)c(O)c1 (stereo not drawn),5.41%
15,COc1ccc(CCN2CCC(NCc3cccc(N(C)C)c3)CC2)cc1,-0%
16,COc1cccc2c(NN=Cc3cccc(F)c3)ccnc12,2.99%
17,COc1ccc(-c2ccccc2OCCCNc2nc(NCCc3ccc(O)cc3)nc(N3CCNCC3)n2)cc1,13.8%
18,O=C(Nc1ccc(CN2CCOCC2)cc1)c1ccc(-c2ccc(Br)cc2)o1,4.17%
19,OC(c1cc(C(F)(F)F)nc2c(F)cccc12)C1CCCCN1 (stereo not drawn),0%
20,Cc1cc(NCCc2cccc(F)c2)nc(NC(=N)Nc2cccc(C(F)(F)F)c2)n1,10.5%
21,CN1CCN(c2ccc(Nc3ncc([N+](=O)[O-])c(Nc4ccccc4O)n3)cc2)CC1,6.99%
22,CCCCNCc1ccc(-c2nc(CN(CCCn3ccnc3)C(=O)C3COc4ccccc4O3)cs2)cc1 (stereo not drawn),4.93%
23,S=C(NCCCCCN1CCC(c2c[nH]c3ccccc23)CC1)Nc1ccc(Cl)c(Cl)c1,11%
24,CCCNCc1ccc(-c2ccc(CN(CCOC)C(=O)c3cccc(C#N)c3)cc2)nc1,0.7%

row,SMILES,IFI
1,COc1cc2c(cc1OC)CN(c1cc(N)c3cc(OC)c(OC)cc3n1)CC2,-0%
2,Nc1c2c(nc3ccc(Oc4ccc(Cl)cc4)cc13)CCCC2,7.21%
3,CN(C)CCNc1nccc(N2CCc3ncnc(Nc4ccc(OCc5cccc(F)c5)c(Cl)c4)c3C2)n1,15.7%
4,COc1cc2nc(N3CCC(CNC(=O)c4cccc5cc[nH]c45)CC3)nc(N)c2cc1OC,3.51%
5,CC(=O)Nc1nnc(SCc2c(C)cc(C(C)(C)C)cc2C)s1,-0%
6,NC1CCCN(Cc2ccc(-c3cccc(-c4nc5cc(F)ccc5[nH]4)c3)cc2)C1 (stereo not drawn),5.56%
7,COC(=O)CCCOc1cc(Cc2cnc(N)nc2N)cc(OC)c1OC,0.73%
8,CC(C)Cn1ccc2c3c(N)nc(N)nc3ccc21,2.5%
9,CCOC(=O)c1cc(C(=O)OC)c2ccccn12,1.48%
10,CCC(ON1C(N)=NC(N)=NC1(C)C)c1ccccc1 (stereo not drawn),2.17%
11,[O-][s+]1nc(NCCCN(Cc2cccs2)c2ccccn2)c(NCc2ccccc2)n1 (stereo not drawn),4.83%
12,CCCOc1ccc2ccccc2c1CNCCCCCCNCc1c(OCCC)ccc2ccccc12,17.6%
13,Fc1ccc(-c2csc3ncnc(Cl)c23)cc1,2.16%
14,CCc1nc(N)nc(N)c1-c1ccc(Cl)cc1,1.59% and 3.57%
15,CCOC(=O)c1ccc(NC(=O)Nc2ccc(-c3cccc(-c4nc5cc(F)ccc5[nH]4)c3)cc2)cc1,4.95%
16,O=C(c1ccc(Cl)cc1)N1CCOC(CCN2CCC(c3ccccc3)CC2)(c2ccc(Cl)c(Cl)c2)C1 (stereo not drawn),8.84%
17,CCOP(=O)(OCC)c1ccc(OC)c(-c2ccc[nH]2)c1,2.16%
18,COc1ccc(CCNc2nc(NCc3ccccc3)c3cc(OC)c(OC)cc3n2)cc1OC,5.84%
19,CCOC(=O)N1NC(=O)N(c2ccccc2)C1(c1ccccc1)c1ccccc1,0%
20,CN(C)CCNC(=O)[C@H](CC1CCCCC1)NC(=O)c1ccc(O)c(-c2ccc(Cl)c(Cl)c2)c1,8.57%
21,CCNc1cc(C(=O)N[C@@H](Cc2ccccc2)[C@H](O)CNCc2ccc3c(c2)OCCO3)cc(N2CCCCS2(=O)=O)c1,3.57%
22,Fc1cccc(COc2ccc(Nc3ncnc4ccc(C#C[C@H]5CCCN5)cc34)cc2Cl)c1,5.07%
23,c1cncc(CCNCc2ccc(-c3ccc(-c4nc5ccccc5[nH]4)s3)cc2)c1,6.9%
24,O=C(Nc1cccc(CN2CCCN(Cc3ccc4c(c3)OCO4)CC2)c1)c1ccc(-c2ccccc2)cc1,10.6%

row,SMILES,IFI
1,COc1ccccc1C1CCN(C2CCC(NC(=O)/C=C/c3ccc4c(c3)OC(F)(F)O4)CC2)CC1 (stereo not drawn),9.84%
2,COc1cc2nc(-c3ccccc3)nc(N3CCN(C(=O)c4ccco4)CC3)c2cc1OC,-0%
3,CN1CCC(c2c[nH]c3ccc(NC(=O)Nc4ccc(-c5ccncc5)cc4Cl)cc23)CC1,2.88%
4,c1cc(CNCCN2CCNCC2)cc(-c2cccc(-c3nc4ccccc4[nH]3)c2)c1,3%
5,N#Cc1ccc(N(CCOc2ccc(Cl)c(F)c2)Cc2ccccc2C(F)(F)F)cc1C(F)(F)F,0%
6,CCN(CCCN1CCCCC1)c1cc(C)nc(Nc2ccc(OC)cc2)n1,1.28%
7,COc1ccccc1CCNc1nccc(N[C@@H](Cc2ccccc2)C(=O)NCc2cccs2)n1,4.55%
8,NC1=NC(c2ccccc2)(c2ccccc2)C(=O)N1CC1CCC1,1.98%
9,COc1ccccc1-c1csc(C(=O)NCC2CCN(Cc3ccc(C(C)C)cc3)C2)c1 (stereo not drawn),9.8%
10,CC(C)NCc1ccc(-c2cccc(NC(=O)c3ccc(Cl)cc3)c2)cc1,6.8%
11,CC(C)N1CCN(C(CN2CCN(CCCOc3ccc(-c4ccccc4)cc3)CC2)c2ccc(F)cc2)CC1 (stereo not drawn),20.3%
12,NCC1CCCN1Cc1ccc(-c2ccc(-c3nc4cc(F)ccc4[nH]3)cc2)cc1 (stereo not drawn),9.9%
13,Cc1cc(Cl)ccc1NC(=O)NCCCCCN1CCC(c2c[nH]c3ccccc23)CC1,8.15%
14,Cc1cc(N[C@@H](Cc2ccccc2)C(=O)Nc2ccccc2)nc(NCCN2CCCC2)n1,0%
15,CCCNCc1ccc(-c2ccc(CN(CCOC)C(=O)c3cscn3)cc2)nc1,1.4%
16,Nc1nccc2ccc(-c3ccncc3)cc12,3%
17,FC(F)(F)c1ccc2[nH]ccc(=NN=Cc3ccccc3)c2c1,-0%
18,COc1ccc(NC(=O)CSc2nc(-c3ccccc3Cl)ns2)cc1,3.15%
19,CC(=O)Oc1c(C2CCN(CCCCNC(=O)c3ccc(-c4ccc(C#N)cc4)cc3)CC2)ccc2c1CCCC2,5.17%
20,O=C(CN1CCN(C(=O)c2ccco2)CC1)Nc1ccc(Br)cc1Cl,-0%
21,COc1ccc2cc(C(=O)NC3CCC(CCN4CCc5cc(C#N)ccc5C4)CC3)[nH]c2c1 (stereo not drawn),1.5%
22,CC(=O)N1N=C(c2ccc(Cl)cc2)Sc2c1nc(-c1ccccc1)n2C(C)=O,-0%
23,CN1CCN(CCCN(Cc2csc(-c3ccc(CNCc4ccccc4)cc3)n2)S(=O)(=O)c2ccccc2Cl)CC1,5.63%
24,COc1ccccc1C1CCN(C2CCC(NC(=O)/C=C/c3cc(F)cc(F)c3)CC2)CC1 (stereo not drawn),8.33%

row,SMILES,IFI
1,O=C(Nc1cccc(-c2cccc(-c3nc4cc(C(F)(F)F)ccc4[nH]3)c2)c1)c1c[nH]cn1,4.67%
2,CC(=O)c1c(C)[nH]c(C(=O)Nc2ccc(-c3nc4ccc(C)cc4s3)cc2)c1C,1.71%
3,COc1ccc(CCNc2nc(N)c3cc(OC)c(OC)cc3n2)cc1,1.53%
4,COc1cccc2cc(C(=O)N[C@@H](CC(C)C)C(=O)N[C@H](/C=N/NC(=O)c3ccccc3)Cc3c[nH]cn3)oc12,2.75%
5,CC(=O)Nc1ccc(CN(Cc2ccc(OC(C)(C)C)cc2)Cc2ccc3c(c2)OCCO3)cc1,3.09%
6,Cc1cc(Nc2ncc(C#N)c(Nc3ccccc3C(N)=O)n2)ccc1N1CCN(C)CC1,11.5%
7,COc1c(C2CCN(CCCCNC(=O)c3cc(-c4ccc(C#N)cc4)n[nH]3)CC2)ccc2c1CCCC2,2.65%
8,NC1CCN(Cc2cccc(-c3ccc(-c4nc5ccccc5[nH]4)s3)c2)C1 (stereo not drawn),2.9%
9,N#Cc1cc(C(=O)Nc2ccccc2)c(N)nc1SCC(=O)NC(c1ccccc1)c1cccs1 (stereo not drawn),6.12%
10,O=C(Nc1ccc(-c2nc3ccccc3[nH]2)cc1)c1ccc(N2CCCC2)c([N+](=O)[O-])c1,0.99%
11,COc1ccc2nccc(C(=O)NC3CCC(CCN4CCc5cc(C#N)ccc5C4)CC3)c2c1 (stereo not drawn),0.72%
12,Cc1cc(N)c2cc(NC(=O)c3cc4ccccc4s3)ccc2n1,6.12%
13,Cc1cccc(NC(=O)NCc2ccccc2)n1,0.78%
14,CC1CN(Cc2ccccc2)CCN1c1ccc(NC(=O)c2cccs2)cc1 (stereo not drawn),2.78%
15,O=S(=O)(NCCN1CCCC1)c1ccc(-c2ccc(CNC3Cc4ccccc4C3)cc2)s1,10.7%
16,CCN1CCN(CCCNc2c3ccc(Cl)cc3nc3ccc(OC)cc23)CC1,4.23%
17,Cc1cccc2nc(-c3ccc(-c4ccc(NC(=O)CN5CCN(C)CC5)cc4)cc3)[nH]c12,5.22%
18,CC(=O)c1c[nH]c2ccc(/C=C/C(=O)NC3CCC(CCN4CCc5ccc(C#N)cc5CC4)CC3)cc12 (stereo not drawn),3.6%
19,Cc1cc(N[C@@H](Cc2ccccc2)C(=O)NCc2cccs2)nc(NCCc2ccccn2)n1,2.27%
20,Cc1c(F)cc(C(=O)NC2CC2)cc1-c1ccc2c(cnn2S(=O)(=O)c2cccs2)c1,0%
21,COc1ccc(Br)cc1/C=C/C(=O)Nc1cccc(C2CCN(C)CC2)c1,7.02%
